# From paper PMC4336329 (PLoS ONE, 2015)
# Screen size: about 310,000 compounds; about 14,000 (4.5%) showed an effect of 50% or more. Effects have a minus sign here. Some of the results follow.
# Target: human ether-à-go-go-related gene (hERG) potassium channel (human, UniProt Q12809)
# Test: primary screen, population patch clamp on CHO cells stably expressing hERG
# 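Also: peak tail current of the secondary pulse compared with the same well before compound.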
# Chain of human ether-à-go-go-related gene (hERG) potassium channel (Q12809 whole entry, looked up): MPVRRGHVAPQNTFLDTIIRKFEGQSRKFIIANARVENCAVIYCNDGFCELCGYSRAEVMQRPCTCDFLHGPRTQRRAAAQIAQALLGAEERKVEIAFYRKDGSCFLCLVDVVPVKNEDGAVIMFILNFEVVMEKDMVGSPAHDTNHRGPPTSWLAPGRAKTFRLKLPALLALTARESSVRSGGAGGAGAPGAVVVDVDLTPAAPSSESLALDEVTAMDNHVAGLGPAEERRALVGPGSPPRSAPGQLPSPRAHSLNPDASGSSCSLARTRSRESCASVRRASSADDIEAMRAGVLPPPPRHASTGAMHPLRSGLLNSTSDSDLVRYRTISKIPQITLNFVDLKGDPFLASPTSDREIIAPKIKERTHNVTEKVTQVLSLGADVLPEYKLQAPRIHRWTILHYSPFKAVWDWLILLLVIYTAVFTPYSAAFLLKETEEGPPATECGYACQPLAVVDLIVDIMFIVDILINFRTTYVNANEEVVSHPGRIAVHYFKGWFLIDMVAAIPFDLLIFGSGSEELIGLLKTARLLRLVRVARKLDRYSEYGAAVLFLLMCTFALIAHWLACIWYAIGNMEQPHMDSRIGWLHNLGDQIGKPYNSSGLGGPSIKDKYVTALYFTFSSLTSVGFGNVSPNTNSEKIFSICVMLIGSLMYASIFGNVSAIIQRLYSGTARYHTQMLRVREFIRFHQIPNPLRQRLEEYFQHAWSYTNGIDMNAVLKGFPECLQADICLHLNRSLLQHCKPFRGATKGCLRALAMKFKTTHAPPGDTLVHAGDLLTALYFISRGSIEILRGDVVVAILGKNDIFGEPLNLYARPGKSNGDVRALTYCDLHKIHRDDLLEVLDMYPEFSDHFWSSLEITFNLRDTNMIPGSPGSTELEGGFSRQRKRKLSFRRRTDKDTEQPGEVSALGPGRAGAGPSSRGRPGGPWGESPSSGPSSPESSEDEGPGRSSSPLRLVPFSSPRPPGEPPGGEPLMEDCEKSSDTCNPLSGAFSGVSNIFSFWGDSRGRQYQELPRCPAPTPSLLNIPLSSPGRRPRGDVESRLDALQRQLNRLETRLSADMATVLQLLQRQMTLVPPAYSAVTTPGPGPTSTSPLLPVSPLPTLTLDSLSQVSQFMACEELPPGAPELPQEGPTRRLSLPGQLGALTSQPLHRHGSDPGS
row,SMILES,"hERG current change (%, negative = inhibition) at 10uM [%]"
1,Brc1ccc(-c2nn3c(-c4ccco4)nnc3s2)o1,-29.2
2,CCOC(=O)C1CCN(C(=O)C2(NC(=O)Nc3ccccc3Cl)CCCCC2)CC1,-8.52
3,COC(=O)[C@H]1[C@@H](C)N(CCc2cc(OC)c(OC)c(OC)c2)C(=O)N[C@H]1c1ccccc1,-6.01
4,CCc1nnc(NS(=O)(=O)c2ccc(N)cc2)s1,10.6
5,O=C(Nc1ccc(F)cc1F)C1CCN(C(=O)c2ccc(Br)cc2)CC1,-30.2
6,COc1ccccc1OCC(=O)Nn1c(=S)[nH]c2ncccc2c1=O,19.1
7,COc1ccc(-c2nc3c(n2O)CCC/C3=N\O)cc1,7.98
8,Cc1cc(N=Cc2cc(Cl)ccc2O)no1,-6.77
9,CN(CC(=O)Nc1ccccc1F)CC(=O)Nc1ccc(F)c(F)c1F,17.1
10,N#Cc1cnn(Cc2ccccc2)c1/N=C/N1CCOCC1,-11.3
11,Cc1cc(C)cc(N(CC(=O)N2CCN(Cc3ccccc3)CC2)S(=O)(=O)c2c(C)noc2C)c1,1.23
12,N#Cc1ccc(S(=O)(=O)N2CCCN(c3nc4ccc(Cl)cc4s3)CC2)cc1,-70.3
13,CCn1cc(C(=O)NCC2CCCO2)c(=O)c2cc(S(=O)(=O)N3CCCCCC3)ccc21 (stereo not drawn),-51.3
14,O=C(COc1ccccc1)NCC(=O)N/N=C/c1ccc(Cl)cc1,-7.97
15,COC(=O)c1ccccc1NC(=O)CSc1nc(Nc2ccccc2)nc(N2CCOCC2)n1,3.6
16,CNC(=O)CSc1nc2cccnc2n1C1CCCCC1,12
17,CCc1nc(C)cc2c1sc1ccccc12.Cl,3.2
18,CC(C)CC(=O)N1CC(=O)Nc2ccc(F)cc2C1c1ccccc1 (stereo not drawn),0.0422
19,CC(C)c1nc2sc3c(=O)[nH]cnc3c2c2c1CCC2,4.7
20,CN(C)/C=C/c1oc2ccc(O)cc2c1[N+](=O)[O-],3.59
21,Nc1ccccc1Sc1ccc(C(F)(F)F)cc1[N+](=O)[O-],-4.06
22,O=C(C1=C(O)C(=O)N(CCOCCO)C1c1cccs1)c1cccs1 (stereo not drawn),5.59
23,O=C(N/N=C/c1cn[nH]c1-c1ccc(Cl)cc1)c1ccc([N+](=O)[O-])cc1,-51.5

row,SMILES,"hERG current change (%, negative = inhibition) at 10uM [%]"
1,CCN(CC)S(=O)(=O)c1ccc(-c2nnc(SCC(=O)Nc3cc(OC)cc(OC)c3)o2)cc1,-15.6
2,COc1ccc(/C=C(/NC(=O)c2ccc(C)cc2)C(=O)NCc2ccncc2)cc1,-66.2
3,Cc1c(Br)c([N+](=O)[O-])nn1CC(=O)NCc1cccnc1,-11.3
4,CCC(=O)c1ccc(OCC(=O)NC2CCCC2)cc1,12
5,COc1ccc(Nc2cc(Cl)nc(N)n2)cc1OC,11.9
6,Cc1nnc(NC(=O)CSc2nc(CC(C)C)nc3c2c(=O)n(C)c(=O)n3C)s1,1.56
7,O=C(OCC(=O)N1CCCc2ccccc21)c1c(F)cccc1F,10.7
8,COc1cc(CC(=O)OCC(=O)NC2CCCC2)cc(OC)c1OC,12.9
9,CCN1CCN(c2ccccc2NC(=O)c2ccc(-n3cccn3)cc2)CC1,-16.1
10,Cc1ccc(-n2c(C)nnc2SCC(=O)N2CCOCC2)cc1,21.9
11,COc1ccc(OCC(O)CNC(=O)Nc2cc(F)ccc2C)cc1 (stereo not drawn),6.46
12,COc1ccc(CN(C)C(=O)c2cccc(Oc3ccccc3)c2)c(OC)c1OC,-20.6
13,CCc1ccc(NC(=O)c2noc3c2CCCCC3)cc1,0.215
14,COc1ccc(-c2nc(C(=O)O)cs2)cc1OC,2.6
15,O=C(NCc1ccc(Cl)cc1)C(=O)NCC(c1ccco1)N1CCOCC1 (stereo not drawn),-15.9
16,CCOC(=O)N1CCN(C(=O)c2ccc(Cn3c(=S)[nH]c4cc(C(=O)OC)ccc4c3=O)cc2)CC1,15.3
17,COc1ccc(CCNC(=O)C2CCCN(S(=O)(=O)c3ccccc3)C2)cc1 (stereo not drawn),-36.5
18,O=C(COC(=O)c1ccc2ncsc2c1)Nc1cc([N+](=O)[O-])ccc1Cl,2.28
19,CC(=O)Nc1nonc1NC(=O)CSc1ccccn1,2.54
20,O=C1C(Cl)=C(Nc2ccc(O)cc2)C(=O)c2ccccc21,14.6
21,O=C(O)C(=O)O.O=C(c1ccccc1F)N1CCN(Cc2ccc3c(c2)OCO3)CC1,6.48
22,CCN1CNC(=S)N(c2ccccc2C)C1,9.86
